Here are results for 23 molecules from paper PMC4336329 (PLoS ONE, 2015).

Screen size: about 310,000 compounds; about 2,200 (0.71%) showed an effect of 50% or more. Effects have a minus sign here. The list shows a part of the results.

The target of this test is human ether-à-go-go-related gene (hERG) potassium channel (human, UniProt Q12809). Kind of test: primary screen, population patch clamp on CHO cells stably expressing hERG.
Chain of human ether-à-go-go-related gene (hERG) potassium channel (Q12809 whole entry, looked up): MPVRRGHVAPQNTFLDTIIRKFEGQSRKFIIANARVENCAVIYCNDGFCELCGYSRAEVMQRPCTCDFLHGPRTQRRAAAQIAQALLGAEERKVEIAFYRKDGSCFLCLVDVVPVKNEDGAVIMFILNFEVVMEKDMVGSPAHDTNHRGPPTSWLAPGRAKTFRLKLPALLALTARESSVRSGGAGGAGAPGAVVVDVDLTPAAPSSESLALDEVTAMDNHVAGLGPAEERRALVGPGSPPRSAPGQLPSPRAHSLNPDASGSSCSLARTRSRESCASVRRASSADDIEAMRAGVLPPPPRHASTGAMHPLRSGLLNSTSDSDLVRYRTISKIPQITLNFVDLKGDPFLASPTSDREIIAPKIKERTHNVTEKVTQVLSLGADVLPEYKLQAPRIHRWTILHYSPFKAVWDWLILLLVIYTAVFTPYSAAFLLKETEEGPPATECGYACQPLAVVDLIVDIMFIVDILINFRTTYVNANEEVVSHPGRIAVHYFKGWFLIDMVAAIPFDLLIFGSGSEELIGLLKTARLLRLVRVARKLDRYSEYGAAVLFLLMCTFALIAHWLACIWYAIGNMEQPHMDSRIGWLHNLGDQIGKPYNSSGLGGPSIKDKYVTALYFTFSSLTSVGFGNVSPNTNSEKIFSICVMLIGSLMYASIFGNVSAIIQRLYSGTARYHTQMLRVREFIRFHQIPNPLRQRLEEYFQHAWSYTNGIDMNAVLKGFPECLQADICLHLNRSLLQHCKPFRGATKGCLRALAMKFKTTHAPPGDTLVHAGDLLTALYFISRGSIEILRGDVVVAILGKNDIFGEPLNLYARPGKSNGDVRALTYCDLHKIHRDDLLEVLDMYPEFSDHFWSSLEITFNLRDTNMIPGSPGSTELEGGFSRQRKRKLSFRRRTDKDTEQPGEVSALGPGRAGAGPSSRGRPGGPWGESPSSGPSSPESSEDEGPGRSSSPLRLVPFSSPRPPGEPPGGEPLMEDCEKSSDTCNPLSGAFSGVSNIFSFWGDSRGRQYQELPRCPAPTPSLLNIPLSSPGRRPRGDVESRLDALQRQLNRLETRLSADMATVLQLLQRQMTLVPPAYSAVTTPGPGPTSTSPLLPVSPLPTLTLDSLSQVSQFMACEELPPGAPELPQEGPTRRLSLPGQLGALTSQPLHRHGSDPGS
For the molecule `O=C(NCCC1CCCCN1S(=O)(=O)c1ccc(Cl)cc1)C(=O)NCc1cccnc1` (centres unmarked), the “hERG current change (%, negative = inhibition) at 1uM” value is listed as -5.1%. With `COc1ccccc1NC1=NC(c2ccc(Cl)cc2)N=C(N)N1` (centres unmarked) the figure was 1.19%. For the molecule `CCCCCCCC1c2c(c(C)c(C)oc2=O)Oc2c(C)c(C)oc(=O)c21`, the “hERG current change (%, negative = inhibition) at 1uM” value worked out at 12.5%. The value for `Cc1ccc(C(C(=O)NC2CCCCC2)N(CCCN2CCOCC2)C(=O)c2snc(C(N)=O)c2N)cc1` (centres unmarked) was 6.64%. The value for `CCC12CC3CC(C1)CC(C(=O)NNC(N)=O)(C3)C2` was 9.69%; that for `CCCCc1c(C)nn(-c2nnc3c4ccccc4n(CC)c3n2)c1C` was 17%; that for `Cc1ccnc(Nc2nc(-c3c(C)nc4sccn34)cs2)c1` was -3.29%. The value for `C=CC[n+]1c(/C=C2\C=Cc3cc(C)ccc3N2CC)ccc2ccccc21.[Br-]` was -92.1%; that for `Cc1cc(C)cc(NC(=O)CCC(=O)Nc2nnc(C(F)(F)F)s2)c1` was 12.6%; that for `COc1ccc(Cn2c(=O)[nH]c3cc(C(=O)Nc4ccc(N5CCN(C)CC5)cc4)ccc32)cc1` was 16.4%. For the molecule `CC1=C(C)CC(C(=O)c2ccccc2)C(C(=O)O)C1` (centres unmarked), the “hERG current change (%, negative = inhibition) at 1uM” value amounted to 8.42%. With `CCn1c(SCC(=O)Nc2cccc(C)c2)nc2ccccc2c1=O` the figure was -3.21%; with `Nc1nc2c(ccc3ccccc32)s1`, 11.7%; with `c1ccc(Cc2nc(-c3ccccn3)no2)cc1`, 5.25%. The value for `COc1ccc(NC(=O)CNc2cc(S(=O)(=O)N3CCOCC3)ccc2NCC2CCCO2)cc1` (centres unmarked) was 6.28%; that for `Cc1cc(C)nc(NS(=O)(=O)c2ccc(NC(=S)NC(=O)c3ccco3)cc2)n1` was 10.5%; that for `Cc1ccc(C(=O)OCC(=O)NCCNC(=O)COC(=O)c2ccc(C)s2)s1` was 9.7%. With `C#CCOCCOCCOCCNc1nc(N2CCN(C(=O)[C@H]([C@@H](C)CC)n3cc([C@@H](N)CC(C)C)nn3)CC2)nc(N2CCN(C(=O)[C@H](Cc3ccc(O)cc3)n3cc([C@@H](N)CC(C)C)nn3)CC2)n1.Cl` the figure was 9.79%; with `O=C(CC1CS(=O)(=O)CC1CC(=O)Nc1ccc2c(c1)OCCO2)Nc1ccc2c(c1)OCCO2` (centres unmarked), 1.74%; with `COc1cc2ccccc2cc1C(=O)N/N=C/c1cccnc1`, 0.286%. For `Cc1ccc2c(c1)N(CC(=O)Nc1ccccc1F)C(=O)CO2`, the “hERG current change (%, negative = inhibition) at 1uM” value worked out at 17.1%. With `CC1(C)C(=O)OC(c2cccs2)C(C)(C)C1=O` (centres unmarked) the figure was 10.1%; with `O=c1c2ccccc2nc2n1C(CBr)CN2` (centres unmarked), 12%.
